The results in this text go back to PubChem BioAssay AID504444 (National Center for Advancing Translational Sciences (NCATS), 2011).

Molecules are shown by their SMILES. “And” between values parts separate entries of the source, which are not always exact repeats. Equal entries are not always repeated. The whole screen tested about 360,000 compounds, of which about 7,500 (2.1%) were called active. Not shown: some 20% with an inconclusive outcome. Calls come from the whole dose curve; as a rule, active = well fitted inhibition curve with a large enough effect; inconclusive = small, poorly fitted or top-dose-only effect, or effect the other way; inactive = flat fitted curve, though single readings scatter. The list shows a part of the results, in another mix than the full data. Some compounds were tested as several samples or in several runs, with calls that do not always agree.
% is set by controls: 0 for no effect and ±100 for the full control effect; potency is the fitted concentration of half-maximal effect.

The nature of this test: Nrf2 qHTS screen for inhibitors. Note: nearly all actives have a fitted effect of over 60% in size. The note with it: A549 ARE-Fluc reporter, luciferase luminescence, 18-24 h; series mostly up to 46 µM; activity change, negative = inhibition: at the top concentration. Put shortly: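 In this cell-based qHTS, ARE-driven firefly luciferase in A549 cells reports Nrf2 activity; the luminescent signal after BugLite lysis is the measured value, with a prior CellTiter-Fluor read for cell health.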
(Quantitative high-throughput screening tests each substance at several concentrations.)
Consider `CN(CCOc1ccc(CC2SC(=O)NC2=O)cc1)c1ccccn1` (stereo unspecified), for which the “activity change, negative = inhibition” value is inactive: -28.5%.

Turning to `CCCn1c2ccccc2c2cnn(CC(=O)NCCCN3CCCCC3CC)c(=O)c21` (stereo unspecified), the “activity change, negative = inhibition” value is inactive: 22.3%.

With `COc1ccccc1C(=O)NCC(=O)N=Nc1c(O)n(C(C)C)c2ccccc12`, the Potency is active: 23.1 µM.

Consider `CCOC(=O)c1c(C)[nH]c(C(=O)OCC(O)=C(C#N)c2nc3ccccc3[nH]2)c1C`, for which the “activity change, negative = inhibition” value is inactive: -12.3%.

With `CN(Cc1ccc(Cl)cc1)C(=O)c1ccc(S(=O)(=O)NCc2ccco2)cc1`, the Potency is active: 9.2 µM.

On to `CC[C@@H]1CCCCc2ccccc2[C@H](C(=O)C[C@@H](O)CC(C)=O)OC1=O`, for which the “activity change, negative = inhibition” value is inactive: -29.2%.

In the case of `COc1ccc(NC(=O)c2c(NC(=O)c3ccncc3)sc3c2CCC(C(C)(C)C)C3)cc1` (stereo unspecified), the Potency was active: 18.4 µM.

Turning to `O=C(CN1C(=O)c2cccnc2Oc2ccc(Cl)cc21)NCCc1ccccc1`, the “activity change, negative = inhibition” value was inactive: -9.44%.

For `O=C(Cc1ccc(-n2c(=O)[nH]c3ccsc3c2=O)cc1)N1CCN(c2ccc(Cl)cc2)CC1`, the Potency is active: 23.1 µM.

In the case of `COC(C[C@@H]1O[C@H]1[C@@H](O)[C@@H](C)OCc1ccccc1)OC`, the “activity change, negative = inhibition” value is inactive: 6.16%.

Consider `COc1ccc(Nc2ncc(C(=O)N3CCN(c4ccccc4OC)CC3)c3ccccc23)cc1`, for which the activity change, negative = inhibition is inactive: -8.77% [at 9.27 µM].

With `O=C(Nc1nnc(S(=O)(=O)N2CCCCCC2)s1)c1ccccc1`, the “activity change, negative = inhibition” value was inactive: -10.7%.

Take `O=C(CCl)Nc1cc(SCC(O)CO)cc([N+](=O)[O-])c1` (stereo unspecified): the Potency is active: 4.61 µM.

As for `O=C1NC[C@H](Cc2ccc(O)cc2)N(CCc2cccc3ccccc23)C1=O`, the “activity change, negative = inhibition” value is inactive: 13.4%.

In the case of `O=C1NC(=S)S/C1=C\c1ccc(SCc2ccccc2)o1`, the Potency is active: 20.6 µM.

For `CC(C)OCCCN(C)C1CCN(S(=O)(=O)c2csc(C(N)=O)c2)CC1`, the “activity change, negative = inhibition” value is inactive: 4.78%.

Turning to `Cc1ccccc1OCc1n(CC(=O)OC2CC(C)CCC2C(C)C)c2ccccc2[n+]1C` (stereo unspecified), the Potency entry was “inactive and active: 18.4 µM”.

Take `O=C(C1=C[C@H](c2coc3ccccc3c2=O)C[C@H](OCCCCO)O1)N1CCN(Cc2ccc3c(c2)OCO3)CC1`: the “activity change, negative = inhibition” value was inactive: -22.8%.

On to `COc1ccccc1NC(=O)Cn1cnc2c(nc3n2CCCCC3)c1=O`, for which the “activity change, negative = inhibition” value was inactive: 0.511%.

On to `CCCC1OC2CC3C4CCC5=CC(=O)C=CC5(C)C4C(O)CC3(C)C2(C(=O)O)O1` (stereo unspecified), for which the Potency was active: 0.461 µM.

Consider `N=C1C=CC(=C(c2ccc(N)cc2)c2ccc(N)cc2)C=C1`, for which the Potency is active: 7.31 µM.

Turning to `CCN(CC)C(=O)c1nn(-c2ccccc2)c2c1C1CCC2(C)C1(C)C` (stereo unspecified), the Potency was active: 16.4 µM.

As to `COc1ccc(-c2ccc(C(C)=O)cc2)cc1C1C2C=CCC(C)C2C(=O)N1Cc1ccccc1` (stereo unspecified), the “activity change, negative = inhibition” value was inactive: 14.7%.

As to `C[C@H]1CC[C@]2(O[C@@H](CCO)C[C@H](O)[C@H]2O)O1`, the “activity change, negative = inhibition” value was inactive: -0.254%.

Consider `Cc1ccc(CN2CCC(CNC(=O)Nc3ccccc3F)CC2)cc1`, for which the “activity change, negative = inhibition” value was inactive: 13.8%.

Take `O=C(COCc1ccccc1)N[C@@H]1c2ccccc2CC[C@H]1OCc1ccccc1`: the “activity change, negative = inhibition” value is inactive: 9.83%.

Take `Cc1cc(C)cc(NS(=O)(=O)c2cc3[nH]c(=O)c(=O)[nH]c3cc2C)c1`: the “activity change, negative = inhibition” value was inactive: 8.24%.

With `COc1cc2c(C(=O)N3CCN(c4cccc(Cl)c4)CC3)cn(C)c(=O)c2cc1OC`, the “activity change, negative = inhibition” value was inactive: -8.65%.

Take `COc1ccc(NS(=O)(=O)c2ccc(NC(=O)c3ccc(Br)cc3)cc2)nn1`: the Potency is active: 20.6 µM.

For the compound `CCN(c1ccc(OC)cc1)S(=O)(=O)c1nnc(NC(=O)COc2ccc(F)cc2)s1`, the “activity change, negative = inhibition” value was inactive: -28.4%.

As for `CC1C(=O)Nc2ccc(S(=O)(=O)Nc3ccccc3Br)cc2NC1=O` (stereo unspecified), the “activity change, negative = inhibition” value is inactive: -3.51%.

In the case of `CCN1CCN(C(=O)c2ccc3c(c2)N(Cc2ccccc2)C(=O)c2ccccc2S3=O)CC1` (stereo unspecified), the “activity change, negative = inhibition” value is inactive: -3.38%.

For the compound `O=C(O)c1cc(O)c2c(c1)[C@@H]([C@H]1c3cc(C(=O)O)cc(O)c3C(=O)c3c(O[C@@H]4O[C@H](CO)[C@@H](O)[C@H](O)[C@H]4O)cccc31)c1cccc(O[C@@H]3O[C@H](CO)[C@@H](O)[C@H](O)[C@H]3O)c1C2=O`, the “activity change, negative = inhibition” value is inactive: 5.59%.

Regarding `Cc1ccc2c(c1)S/C(=C/c1ccc[n+](CCO)c1)N2C`, the Potency is active: 1.16 µM.

`Cc1cccc(NS(=O)(=O)c2ccc(-n3cccn3)cc2)c1C`: the “activity change, negative = inhibition” value was inactive: -24.8%.

As for `COC(C[C@H]1O[C@@H]1[C@H](O)[C@H](C)OCc1ccccc1)OC`, the “activity change, negative = inhibition” value was inactive: 3.7%.

`O=C(Cn1cnc2ccccc21)Nc1ccc2c(c1)OCCCO2`: the Potency is active: 13 µM.

On to `O=C(CCn1c(=O)c2cccn2c2ccc(F)cc21)NCCc1ccccc1`, for which the “activity change, negative = inhibition” value is inactive: 20.6%.

On to `O=C(CCn1ccc2cc(S(=O)(=O)N3CCCC3)ccc21)NCc1cccc(F)c1`, for which the “activity change, negative = inhibition” value was inactive: -6.94%.

On to `COC(=O)c1cc(S(=O)(=O)NCC2CCN(Cc3cccc(F)c3)CC2)c[nH]1`, for which the “activity change, negative = inhibition” value was inactive: 10.1%.

In the case of `Nc1nc(NCc2cccc(Cl)c2)c2[nH]cnc2n1`, the “activity change, negative = inhibition” value was inactive: 21.1%.

As for `O=C(CSc1nnc(Cc2csc(Nc3cccc(Cl)c3)n2)o1)N1CCc2ccccc21`, the “activity change, negative = inhibition” value was inactive: -11.3%.

For `CC(=O)c1ccc(NC(=O)c2ccc(NC(=O)CCS(=O)(=O)c3cccs3)cc2)cc1`, the “activity change, negative = inhibition” value is inactive: 4.1%.

`O=[N+]([O-])c1ccc(Oc2ccc(Oc3ccc(C(F)(F)F)cn3)cc2)nc1`: the Potency was active: 16.4 µM.

As to `CN1CCSc2ccc(C(=O)NCc3ccccc3F)cc21`, the “activity change, negative = inhibition” value was inactive: 1.87%.

As to `CCOC(=O)[C@H]1[C@H]2COc3cc(OC)ccc3[C@@H]2N2C(=O)N(c3cccc(F)c3)C(=O)[C@@]12C`, the “activity change, negative = inhibition” value is inactive: -8.59%.
